From article PMC4336329 (PLoS ONE, 2015)
Among all 310,000 compounds or so, about 14,000 (4.5%) showed an effect of 50% or more. The effect is printed as a negative number. Some of the results follow.

molecular target: human ether-à-go-go-related gene (hERG) potassium channel (human, UniProt Q12809); test: primary screen, population patch clamp on CHO cells stably expressing hERG
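Also: peak tail current of the secondary pulse compared with the same well before compound.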

Chain of human ether-à-go-go-related gene (hERG) potassium channel (Q12809 whole entry, looked up): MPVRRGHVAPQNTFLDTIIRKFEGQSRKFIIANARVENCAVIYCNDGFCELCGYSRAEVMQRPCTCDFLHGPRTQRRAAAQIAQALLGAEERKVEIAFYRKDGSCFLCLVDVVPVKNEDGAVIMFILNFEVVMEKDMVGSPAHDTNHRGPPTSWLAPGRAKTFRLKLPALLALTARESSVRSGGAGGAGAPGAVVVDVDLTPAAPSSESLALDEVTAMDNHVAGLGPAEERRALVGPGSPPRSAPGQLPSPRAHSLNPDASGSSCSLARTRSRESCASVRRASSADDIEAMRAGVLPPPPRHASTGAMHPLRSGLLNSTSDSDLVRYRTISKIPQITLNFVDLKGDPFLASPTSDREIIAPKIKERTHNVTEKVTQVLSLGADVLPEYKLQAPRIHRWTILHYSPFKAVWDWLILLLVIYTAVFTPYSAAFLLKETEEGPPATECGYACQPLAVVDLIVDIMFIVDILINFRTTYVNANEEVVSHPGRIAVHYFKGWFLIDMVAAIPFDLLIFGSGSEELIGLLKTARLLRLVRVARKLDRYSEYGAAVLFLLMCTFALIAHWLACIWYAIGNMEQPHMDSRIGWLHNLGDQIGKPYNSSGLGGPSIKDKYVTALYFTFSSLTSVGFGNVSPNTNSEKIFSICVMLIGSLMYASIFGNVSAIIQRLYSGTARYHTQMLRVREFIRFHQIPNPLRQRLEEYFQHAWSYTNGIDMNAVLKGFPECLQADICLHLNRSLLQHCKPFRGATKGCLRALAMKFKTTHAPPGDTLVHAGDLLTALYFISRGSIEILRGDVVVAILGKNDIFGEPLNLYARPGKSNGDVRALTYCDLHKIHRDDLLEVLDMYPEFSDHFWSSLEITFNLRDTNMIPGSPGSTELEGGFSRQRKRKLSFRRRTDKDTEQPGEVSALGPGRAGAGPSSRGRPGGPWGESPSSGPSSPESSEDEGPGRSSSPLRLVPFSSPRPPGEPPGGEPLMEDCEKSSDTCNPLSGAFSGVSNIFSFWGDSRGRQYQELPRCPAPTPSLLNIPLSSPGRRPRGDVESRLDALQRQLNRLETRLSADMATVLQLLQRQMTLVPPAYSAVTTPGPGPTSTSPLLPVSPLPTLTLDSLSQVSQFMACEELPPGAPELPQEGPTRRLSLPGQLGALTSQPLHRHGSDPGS

Compound	hERG current change (%, negative = inhibition) at 10uM
COc1ccc(C(=O)N/N=C\c2ccc(OC)c(COc3ccccc3Br)c2)c(OC)c1	9.88%
Cc1ccc(C(=O)N2CCCCC2)cc1S(=O)(=O)N1CCCCCC1	-38.4%
N#C/C(=C\c1ccco1)c1nc2ccccc2s1	4.36%
C(=C\c1ccccc1)/C=N/Nc1nc(N2CCOCC2)nc(N2CCOCC2)n1	-9.68%
COc1ccc(C2c3cc(OC)c(OC)cc3CCN2C(=O)c2ccccc2Br)cc1OC (centres unmarked)	-3.04%
COc1ccc(CCN(C)C/C=C/c2ccccc2)cc1OC	-64.6%
Cc1ccc(OCC(=O)Oc2ccc(C)c(C)c2)cc1	11.8%
C[C@@H]1CN(C(=O)c2nc3ccc(Cl)cn3c2CNCC[C@@H]2C[C@@H]3C=C[C@H]2C3)C[C@H](C)O1	-20.5%
Nc1cc(=O)[nH]c(=S)n1-c1ccccc1	6.02%
CC1CCc2c(C(=O)N3CCN(S(=O)(=O)c4cccs4)CC3)csc2C1 (centres unmarked)	-25%
CCCCNC(=O)C1CC(c2cccc([N+](=O)[O-])c2)=NO1 (centres unmarked)	-13.8%
COc1ccc(N2C(=O)CCC(C(C)=O)=C2C)cc1	6.76%
COc1ccc(CNC(=S)Nc2ccccc2F)cc1	5.44%
COc1ccc(/C=C/C(=O)Nc2ccc(-n3nncc3-c3ccccc3)cc2)cc1OC	-1.27%
CC(C)(C)n1nc2c(c1NC(=O)c1ccc(C(F)(F)F)cc1)CS(=O)(=O)C2	-38.9%
O=C(COC(=O)c1cccc(NS(=O)(=O)c2ccc(F)c(F)c2)c1)NC(=O)NC1CCCCC1	-8.66%
COc1ccc(C(=O)/C=C/Nc2ccc(S(=O)(=O)Nc3cccc(C(C)=O)c3)cc2)cc1	-0.287%
COC(=O)CCSc1nccn1Cc1ccccc1	3.91%
CCC(Oc1ccccc1)C(=O)N1CCN(c2ccccn2)CC1 (centres unmarked)	-5.16%

Compound	hERG current change (%, negative = inhibition) at 10uM
Cc1ccc(C(=O)OCc2nc3ccccc3s2)o1	-17.7%
O=C(N/N=C/c1cn(-c2ccccc2)nc1-c1cc2ccccc2o1)c1ccncc1	0.389%
CCOC(=S)SCC(=O)Nc1nc(-c2ccccc2)cs1	31.9%
O=C(CCc1ccccc1)c1ccc2c(c1)OCCCO2	-23%
COc1ccc(N2CCN(C(=O)[C@@H]3CCCN3C3=NS(=O)(=O)c4ccccc43)CC2)cc1	-0.599%
CN1CCC(=NNC(=O)C(=O)NC2CCCCC2)CC1	7.62%
COc1ccc(-c2cc(-c3cccnc3)c(C#N)c(N)n2)cc1	-2.6%
CCc1ccccc1OCC(=O)Nc1ccc(S(N)(=O)=O)cc1	29.1%
Cc1ccsc1C(=O)OCC(=O)Nc1ccc(Cl)cc1C(F)(F)F	9.99%
CCCCN(CC)S(=O)(=O)c1ccc(C(=O)Nc2nnc(CSC)o2)cc1	-8.53%
Cc1ccc(-c2csc(NC(=O)/C=C/c3cccs3)n2)cc1C	9.21%
S=C(NCc1ccco1)Nc1ccc(Cl)cc1Cl	8.1%
CCN(CC(=O)NC(C)C)C(=O)CCNC(=O)c1ccc(Cl)cc1	-0.92%
COc1ccc(Oc2cn[nH]c2-c2ccc(OC)cc2O)cc1	-2.64%
CCN1CCN(CCOc2ccc(Br)cc2C)CC1.O=C(O)C(=O)O	-46.6%
O=C(NCc1ccc2c(c1)OCO2)C(=O)NC1CCCCC1	-13.2%
CN(c1ncc(C(F)(F)F)cc1Cl)N1C(=O)c2cccc(N)c2C1=O	3.2%
Cc1cc(C)c(OCC(=O)OC(C)C(=O)N2CCc3ccccc32)c(C)c1 (centres unmarked)	-10.8%
COCCN(C(=O)CSc1nnc(Nc2ccccc2F)s1)c1c(N)n(Cc2ccccc2)c(=O)[nH]c1=O	4.69%

Compound	hERG current change (%, negative = inhibition) at 10uM
COC(=O)C(C)NC(=O)C(C)NC(=O)OCc1ccccc1 (centres unmarked)	14.4%
CCCCC(O)(c1ccc(F)cc1)C(CN1CCOCC1)c1ccc(Cl)cc1.Cl (centres unmarked)	-12%
COc1ccc(CCNC(=O)CSc2n[nH]c(C)c2[N+](=O)[O-])cc1OC	-1.14%
CCC(C)c1ccc(NC(=S)Nc2ccc(OC)cc2)cc1 (centres unmarked)	-17.2%
O=C(NCc1ccc(F)cc1)c1cnccn1	15.8%
COc1ccccc1CCNC(=O)C(=O)NCC1OCCN1C(=O)c1ccc(Cl)cc1 (centres unmarked)	-0.975%
Cc1cccc(OCC(=O)Nc2ccc(C(=O)NCc3cccnc3)cc2)c1	-0.608%
Cc1cc(C)n(-c2ncnc3ccccc23)n1	18.9%
Cc1ccccc1CSCC(=O)Nc1ccccc1Br	6.98%
CCCNC(=O)CCCN1C(=O)c2ccccc2Sc2ncccc21	27.7%
COc1ccc(N(C(=O)c2snc(C(N)=O)c2N)C(C(=O)NC2CCCC2)c2ccc(C)o2)c(OC)c1 (centres unmarked)	-37.8%
CC(C)C(NS(=O)(=O)c1ccccc1)C(=O)N1CCCCCC1 (centres unmarked)	-0.46%
COCC(=O)N1CCC(Oc2cccc(C(=O)NCc3ccccn3)c2)CC1	16.7%
COc1cc2c(cc1OC)C(NNC(=O)c1ccc(Br)o1)=NC(C)(C)C2	8.61%
CC(C)C[C@@H](CO)N1CCN(Cc2ccccc2)CCC1=O	6.02%
COc1ccc(-n2c(SC(C)C(=O)Nc3ccc(NC(C)=O)cc3)nc3ccccc3c2=O)cc1OC (centres unmarked)	12.9%
CCOc1ccccc1N(CC(=O)NC(C)(C)C)C(=O)c1ccc(CN2CCOCC2)o1	16.4%
CC1CCc2c(sc(NC(=O)CSc3nc4c(c(C(F)(F)F)n3)CCc3ccccc3-4)c2C(N)=O)C1 (centres unmarked)	15.5%
